Results from the supplement of paper PMC3334620.
The full ranking holds about 33,000 sequences; the median of “E-score (-0.5 to 0.5)” is about -0.036, and the highest 2% start at about 0.37. Some of the results follow.

What follows are sequences tested against T1, Yer064c (UniProt P40041) (assay: PBM E-score (8-mer binding enrichment) (E-score (-0.5 to 0.5)); higher = stronger / more preferred TF binding; most listed sequences are background and not binding sites). Conditions: protein concentration: 200 nM; construct: GST-full length.
T1 sequence: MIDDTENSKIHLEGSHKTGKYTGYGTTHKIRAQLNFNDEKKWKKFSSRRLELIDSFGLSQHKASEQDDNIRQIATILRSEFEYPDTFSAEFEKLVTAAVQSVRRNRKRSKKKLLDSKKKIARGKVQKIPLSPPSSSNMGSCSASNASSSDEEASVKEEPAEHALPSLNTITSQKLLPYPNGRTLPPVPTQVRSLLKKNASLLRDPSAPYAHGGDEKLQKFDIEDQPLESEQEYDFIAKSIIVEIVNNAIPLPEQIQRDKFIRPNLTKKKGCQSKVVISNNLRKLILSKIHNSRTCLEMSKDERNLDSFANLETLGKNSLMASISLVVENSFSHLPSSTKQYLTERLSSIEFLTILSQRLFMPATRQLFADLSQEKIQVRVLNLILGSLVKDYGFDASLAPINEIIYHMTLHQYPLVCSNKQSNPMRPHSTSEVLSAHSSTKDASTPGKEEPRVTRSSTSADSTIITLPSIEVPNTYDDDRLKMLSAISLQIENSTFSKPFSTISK
Procedure, shortened: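 Detection of bound protein used fluorescent anti-GST, with scans normalised by masliner. The proteins were GST-tagged yeast transcription factors applied at about 100-200 nM to universal all-10-mer Agilent arrays made double-stranded by primer extension. Each ungapped eight-base word, pooled with its reverse complement, was scored with an E-score from the Universal PBM Analysis Suite.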
With TCCAAGCA the “PBM E-score” value was 0.0169.
TCTAGGCA was tested, and the “PBM E-score” value was -0.0384.
With CTGTCTAA the “PBM E-score” value was 0.105.
For CACGGTCG, the “PBM E-score” value was 0.0321.
With GATTCCGC the “PBM E-score” value was 0.225.
With GGCTTTTA the “PBM E-score” value was -0.215.
With ATCGTAAC the “PBM E-score” value was 0.0475.
For ACGGTGGG, the “PBM E-score” value was -0.124.
For CGGTACCG, the “PBM E-score” value was 0.0264.
For ACTTGTAA, the “PBM E-score” value was -0.0878.
For AAATAAGC, the “PBM E-score” value was -0.112.
CGCGAGGA was tested, and the “PBM E-score” value was 0.054.
In the case of GCTGGTCC, the “PBM E-score” value is reported as -0.226.
In the case of AATATGTC, the “PBM E-score” value is reported as -0.0854.
CTGGACGA was tested, and the “PBM E-score” value was -0.0631.
In the case of CGTGGGCC, the “PBM E-score” value is reported as -0.27.
With AGCAAAAT the “PBM E-score” value was -0.0479.
CGGAACAA was tested, and the “PBM E-score” value was -0.0264.
For AAAACGGC, the “PBM E-score” value was -0.298.
For AGTCGGTC, the “PBM E-score” value was 0.0869.
With CGGTCTTA the “PBM E-score” value was -0.123.
AATGTTAC was tested, and the “PBM E-score” value was -0.163.
With AGCTTCTC the “PBM E-score” value was -0.141.
CGGACAAA was tested, and the “PBM E-score” value was 0.0944.
With GTCACGAA the “PBM E-score” value was 0.106.
In the case of GAACTTAC, the “PBM E-score” value is reported as -0.0347.
In the case of GGTGGCGA, the “PBM E-score” value is reported as -0.161.
CACATACC was tested, and the “PBM E-score” value was 0.00062.
CGATGTGA was tested, and the “PBM E-score” value was 0.103.
In the case of ATACCTGG, the “PBM E-score” value is reported as -0.246.
CAGTGAGA was tested, and the “PBM E-score” value was 0.0301.
With AACGTTGT the “PBM E-score” value was -0.271.
CGAAGACG was tested, and the “PBM E-score” value was -0.172.
With CGCTTTTC the “PBM E-score” value was -0.313.
With GACAAGAC the “PBM E-score” value was -0.00374.
TCCAAACA was tested, and the “PBM E-score” value was -0.12.
With CTTTTACC the “PBM E-score” value was 0.0597.
In the case of CTCTGGCA, the “PBM E-score” value is reported as -0.214.
CTGTTGTC was tested, and the “PBM E-score” value was -0.0565.
For TAAGATAA, the “PBM E-score” value was 0.0931.
In the case of TTCTTCAA, the “PBM E-score” value is reported as 0.146.
AATCAGCC was tested, and the “PBM E-score” value was 0.355.
For ACAGGGTC, the “PBM E-score” value was -0.0708.
With AGGGTACA the “PBM E-score” value was -0.0998.
For ATCTTGAA, the “PBM E-score” value was 0.243.
GTTTATGA was tested, and the “PBM E-score” value was 0.0851.
CGTCTTAA was tested, and the “PBM E-score” value was -0.00451.
ACGGTAGT was tested, and the “PBM E-score” value was 0.23.
AAGGTGTC was tested, and the “PBM E-score” value was -0.104.
With GCCCACAC the “PBM E-score” value was -0.164.
For CGCAGGAG, the “PBM E-score” value was 0.00394.
AATAGGGG was tested, and the “PBM E-score” value was -0.273.
ATTAGGGA was tested, and the “PBM E-score” value was -0.0406.
AAACGCTG was tested, and the “PBM E-score” value was -0.316.
CTATGCTC was tested, and the “PBM E-score” value was -0.229.
In the case of CTTCCTTC, the “PBM E-score” value is reported as -0.245.
In the case of CATACTTC, the “PBM E-score” value is reported as 0.00163.
In the case of AGAAAGAT, the “PBM E-score” value is reported as 0.0186.
For GTAACCAC, the “PBM E-score” value was -0.00779.
With TGCGGCAA the “PBM E-score” value was -0.173.
With GCTGGCTA the “PBM E-score” value was 0.183.
AAAACACG was tested, and the “PBM E-score” value was -0.0778.
In the case of ATATGTAG, the “PBM E-score” value is reported as 0.0597.
In the case of CCAGCGGG, the “PBM E-score” value is reported as -0.2.
With ATGCAGAA the “PBM E-score” value was -0.141.
GCAGTAAA was tested, and the “PBM E-score” value was -0.127.
AGTTTTCC was tested, and the “PBM E-score” value was -0.243.
With AGCTTAAC the “PBM E-score” value was -0.0504.
In the case of CCTTCTAA, the “PBM E-score” value is reported as 0.0218.
With ATATCATG the “PBM E-score” value was -0.0474.
In the case of CGAATACA, the “PBM E-score” value is reported as -0.139.
With CATGAATG the “PBM E-score” value was 0.197.
ATTATTAC was tested, and the “PBM E-score” value was 0.0211.
ATGTGCAG was tested, and the “PBM E-score” value was -0.231.
CCTAGGGC was tested, and the “PBM E-score” value was -0.0352.
CACTTGTA was tested, and the “PBM E-score” value was -0.0574.
With CTGAGCTA the “PBM E-score” value was -0.143.
With TTAGAAAA the “PBM E-score” value was 0.0375.
ACTTTTCG was tested, and the “PBM E-score” value was 0.0128.
In the case of TAACTGAA, the “PBM E-score” value is reported as 0.0233.
For ACCACGGA, the “PBM E-score” value was -0.17.
In the case of GCAGTGCA, the “PBM E-score” value is reported as -0.082.
With GTGCGCGA the “PBM E-score” value was -0.0828.
For CACACAAA, the “PBM E-score” value was 0.0172.
With AGAGGCAC the “PBM E-score” value was -0.0952.
CAGTTCAC was tested, and the “PBM E-score” value was -0.0182.
For ATATTGTG, the “PBM E-score” value was -0.101.
ATTAACAG was tested, and the “PBM E-score” value was 0.0829.
In the case of GTATGGCA, the “PBM E-score” value is reported as -0.184.
For GTCAGCTA, the “PBM E-score” value was 0.156.
With CAGTATCA the “PBM E-score” value was -0.162.
ATGCCACG was tested, and the “PBM E-score” value was -0.299.
With GACAGTCC the “PBM E-score” value was 0.0581.
In the case of ACGACAAG, the “PBM E-score” value is reported as -0.289.
CCTAGTCA was tested, and the “PBM E-score” value was 0.446.
AAAGTGAC was tested, and the “PBM E-score” value was 0.305.
In the case of GTCAAAAA, the “PBM E-score” value is reported as 0.22.
CTTCGAGA was tested, and the “PBM E-score” value was 0.0551.
For GCTTGGCA, the “PBM E-score” value was -0.117.
In the case of ACTGGCCT, the “PBM E-score” value is reported as -0.187.
TAAATATA was tested, and the “PBM E-score” value was 0.255.
CGCTGATA was tested, and the “PBM E-score” value was -0.0314.
For ACGGCTGG, the “PBM E-score” value was -0.0618.
With ATGACATG the “PBM E-score” value was 0.0304.
CAGAGTAG was tested, and the “PBM E-score” value was 0.0443.
With ACAGGCGG the “PBM E-score” value was -0.162.
AGGTACGG was tested, and the “PBM E-score” value was -0.127.
For ATGAACCA, the “PBM E-score” value was 0.25.
ATCAGCAT was tested, and the “PBM E-score” value was 0.11.
For AAAAGTTT, the “PBM E-score” value was -0.0997.
For ACGAGGAG, the “PBM E-score” value was -0.0257.
With AAGTGGGC the “PBM E-score” value was -0.068.
In the case of CCCTACGA, the “PBM E-score” value is reported as 0.0187.
For CGACCTCA, the “PBM E-score” value was 0.0582.
With CATGTGTC the “PBM E-score” value was 0.175.
For CCCAGAGA, the “PBM E-score” value was -0.136.
With ACCATACC the “PBM E-score” value was 0.065.
AATATACC was tested, and the “PBM E-score” value was 0.0972.
In the case of AGACTCGG, the “PBM E-score” value is reported as 0.227.
For ACTCCTAC, the “PBM E-score” value was 0.319.
In the case of GCATAAGC, the “PBM E-score” value is reported as -0.214.
For CTGCCCAC, the “PBM E-score” value was -0.296.
In the case of ACGTCGAC, the “PBM E-score” value is reported as 0.134.
For ACCACTCT, the “PBM E-score” value was -0.0617.
For ATACCAAG, the “PBM E-score” value was -0.1.
With CAACATTA the “PBM E-score” value was 0.102.
In the case of CCTACTAA, the “PBM E-score” value is reported as 0.0147.
With TGCGAGAA the “PBM E-score” value was -0.177.
CGAGCCCG was tested, and the “PBM E-score” value was -0.143.
With CCGGTTCC the “PBM E-score” value was -0.328.
In the case of ACTTATCG, the “PBM E-score” value is reported as 0.0591.
CCTGGCAG was tested, and the “PBM E-score” value was -0.105.
CCGTGGAA was tested, and the “PBM E-score” value was 0.0311.
For TATGCTGA, the “PBM E-score” value was 0.192.
With ACTGCAAA the “PBM E-score” value was 0.102.
With CCCTAACC the “PBM E-score” value was -0.338.
CCTTCGCC was tested, and the “PBM E-score” value was -0.256.
ATGCTCAC was tested, and the “PBM E-score” value was -0.0501.
In the case of ATTCGCGG, the “PBM E-score” value is reported as 0.13.
With ACATCTCC the “PBM E-score” value was -0.122.
For AAGTCTAA, the “PBM E-score” value was 0.0139.
For TCTCATAA, the “PBM E-score” value was 0.209.
CGGGTCGC was tested, and the “PBM E-score” value was -0.0932.
For TAGGTAAA, the “PBM E-score” value was 0.0133.
In the case of TGTAGAAA, the “PBM E-score” value is reported as -0.103.
In the case of CAATTTAG, the “PBM E-score” value is reported as 0.196.
AGCTTCCC was tested, and the “PBM E-score” value was -0.305.
In the case of AACCACTT, the “PBM E-score” value is reported as 0.006.
TGCTACAA was tested, and the “PBM E-score” value was 0.0171.
For CATACAAC, the “PBM E-score” value was -0.101.
AACCTGGA was tested, and the “PBM E-score” value was -0.115.
For CCCCTCAG, the “PBM E-score” value was -0.251.
CTCCTACA was tested, and the “PBM E-score” value was 0.111.
With CCGGATTC the “PBM E-score” value was -0.121.
For CTTAATGC, the “PBM E-score” value was 0.0833.
With AAACGGTG the “PBM E-score” value was 0.0462.
In the case of AAACAATT, the “PBM E-score” value is reported as 0.199.
For TACGCCCA, the “PBM E-score” value was -0.128.
CATCCTTC was tested, and the “PBM E-score” value was -0.0835.
In the case of CGGTATAG, the “PBM E-score” value is reported as -0.0513.
In the case of ACAAACCC, the “PBM E-score” value is reported as -0.0685.
CACCGGAG was tested, and the “PBM E-score” value was -0.133.
In the case of AGGGGAGC, the “PBM E-score” value is reported as -0.142.
For AACAATAT, the “PBM E-score” value was 0.16.
GGACGGCC was tested, and the “PBM E-score” value was -0.188.
CTAATTAA was tested, and the “PBM E-score” value was 0.0944.
With CAGCTCGA the “PBM E-score” value was -0.0604.
In the case of AGTCGCCG, the “PBM E-score” value is reported as 0.36.
AAGTTGTC was tested, and the “PBM E-score” value was -0.133.
GAAATCAC was tested, and the “PBM E-score” value was 0.347.
AAAATTCT was tested, and the “PBM E-score” value was -0.187.
CGGGGATC was tested, and the “PBM E-score” value was -0.226.
